Drawing on US20190111115A1 (published 2019), this text covers Kd for 3 molecules.

Among the targets are Human FcRIIB; Mouse FcRIII; Mouse FcRIIB; Human FcRIIA[R]; Human FcRIII (human); Human FcRn; Mouse FcRI.
What all share (experiment): ELISA
Another assay has as its target T1, murine FcγRIV (UniProt A0A0B4J1G0 21-203).
T1 chain: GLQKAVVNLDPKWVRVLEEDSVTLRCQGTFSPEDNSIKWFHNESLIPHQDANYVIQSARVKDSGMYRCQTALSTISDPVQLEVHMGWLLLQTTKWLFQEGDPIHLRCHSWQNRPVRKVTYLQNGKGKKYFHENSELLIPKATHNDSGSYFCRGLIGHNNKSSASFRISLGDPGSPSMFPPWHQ

For assay [1], the target named is T2, human FcγRIIA (H131) fused with GST (human, UniProt P12318 34-217).
T2 chain: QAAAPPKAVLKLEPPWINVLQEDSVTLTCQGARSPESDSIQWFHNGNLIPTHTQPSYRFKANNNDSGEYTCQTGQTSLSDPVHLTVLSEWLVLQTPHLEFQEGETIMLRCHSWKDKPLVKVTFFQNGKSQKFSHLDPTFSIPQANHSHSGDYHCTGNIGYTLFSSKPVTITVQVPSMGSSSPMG

For assay [2], the target named is T3, human FcγRI fused with GST (human, UniProt P12314 16-292).
T3 chain: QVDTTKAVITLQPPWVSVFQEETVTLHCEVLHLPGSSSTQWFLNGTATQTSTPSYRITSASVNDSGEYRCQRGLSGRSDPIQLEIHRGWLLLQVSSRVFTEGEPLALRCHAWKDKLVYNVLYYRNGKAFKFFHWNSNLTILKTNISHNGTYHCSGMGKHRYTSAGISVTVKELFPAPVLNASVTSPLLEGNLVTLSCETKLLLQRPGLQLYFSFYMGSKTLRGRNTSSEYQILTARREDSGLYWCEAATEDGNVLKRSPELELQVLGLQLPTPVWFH

Sequence of Human FcRIII (chain, as listed by the source): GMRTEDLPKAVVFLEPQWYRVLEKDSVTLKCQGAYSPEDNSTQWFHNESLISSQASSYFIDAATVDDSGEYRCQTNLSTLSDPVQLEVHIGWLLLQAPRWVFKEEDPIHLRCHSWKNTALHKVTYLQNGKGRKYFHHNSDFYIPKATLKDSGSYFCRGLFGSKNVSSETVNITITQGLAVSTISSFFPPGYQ

B1: P8003Z3 (afucosyl variant of P8003Z) (Fc fusion)
chain: [about 120 residues cut from this listing][human IgG1 constant region cut from this listing]GGGSGGGGSGGGGSGGGGSGGGGS[human IgG1 Fc cut from this listing]GGGSGPPGISGPPGDPGLPGKDGDHGKPGIQGQPGPPGICDPSLCFSVIARRDPFRKGPNY
modifications: afucosyl: lacks the core fucose of the N-glycan (produced from a cell line deficient of the alpha-1,6 fucosyltransferase gene, FUT8-/-)
Consider B1, for which the results for the Kd (in the assay with murine FcγRIV; in [1]; in assay [2]) were 0.12 nM, 0.36 nM and 0.13 nM, respectively.

B2: P8003Z1 (Fc fusion)
chain: [about 120 residues cut from this listing][human IgG1 constant region cut from this listing]GGGSGGGGSGGGGSGGGGSGGGGS[human IgG1 Fc cut from this listing]GGGSGPPGISGPPGDPGLPGKDGDHGKPGIQGQPGPPGICDPSLCFSVIARRDPFRKGPNY
With B2, the Kd with Human FcRIIB came to 2.81 nM; in the assay with Mouse FcRIII, 7.71 nM; with Mouse FcRIIB, 261 nM; with Human FcRIIA[R], 0.19 nM; with Human FcRIII, 2.78 nM; with Human FcRn it was 0.37 nM. Also, the Kd with Mouse FcRI amounted to 0.13 nM; with murine FcγRIV it was 0.92 nM; in [1], 0.5 nM; in assay [2] it was 0.15 nM.

B3: P8003Z3 (Fc fusion)
chain: [about 120 residues cut from this listing][human IgG1 constant region cut from this listing]GGGSGGGGSGGGGSGGGGSGGGGS[human IgG1 Fc cut from this listing]GGGSGPPGISGPPGDPGLPGKDGDHGKPGIQGQPGPPGICDPSLCFSVIARRDPFRKGPNY
modifications: afucosyl: lacks the core fucose of the N-glycan (produced from a cell line deficient of the alpha-1,6 fucosyltransferase gene, FUT8-/-)
Consider B3, for which the Kd with Human FcRIIB came to 2.45 nM; with Mouse FcRIII, 17.9 nM; with Mouse FcRIIB it was 84 nM; with Human FcRIIA[R] it was 0.17 nM; with Human FcRIII, 0.17 nM; in the assay with Human FcRn, 0.43 nM. Also, binding with Mouse FcRI was characterised by a dissociation constant (Kd) of 0.24 nM.
